Laboratory results taken from PMC12820563.
Some of the results follow. The list includes weakly bound sequences.

molecular target: T1, MBP-FoxP3dN (UniProt Q99JB6); experiment: PD-seq (MBP pull-down with sequencing); conditions: 20 mM Tris-HCl pH 7.5, 100 mM NaCl, 1.5 mM MgCl2, 0.4 uM protein, 0.1 uM dsDNA library, 30 min, room temperature, amylose pull-down; high values mean tight binding; double strand, one strand shown
T1 sequence: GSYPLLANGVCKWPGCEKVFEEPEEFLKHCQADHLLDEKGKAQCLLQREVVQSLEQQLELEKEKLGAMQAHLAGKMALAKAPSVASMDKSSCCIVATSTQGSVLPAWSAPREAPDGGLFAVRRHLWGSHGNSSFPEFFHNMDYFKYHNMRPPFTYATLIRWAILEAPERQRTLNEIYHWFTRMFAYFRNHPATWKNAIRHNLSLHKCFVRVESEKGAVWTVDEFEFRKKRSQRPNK

Sequence	binding signal (RPM ratio (pull-down/input))
GATGATTGTTCTCCCAGCTGATGAATTGGTCCGTTCGAGTAAACAAATTTTCCTAATCTTTCTGTTCAAGCGCCATCTAC	0.317
GATGATTGTTCTCCCAGCTGATGAATTCACTGTATCGAGTAAACAAATTTTCCTAATCTTTCTGTTCAAGCGCCATCTAC	0.627
GATGATTGTTCTCCCAGCTGATGAATTGCTCGCGTCGAGTAAACAAATTTTCCTAATCTTTCTGTTCAAGCGCCATCTAC	0.761
GATGATTGTTCTCCCAGCTGATGAATTGGCCGAATCGAGTAAACAAATTTTCCTAATCTTTCTGTTCAAGCGCCATCTAC	0.222
GATGATTGTTCTCCCAGCTGATGAATTGCCTCGCTCGAGTAAACAAATTTTCCTAATCTTTCTGTTCAAGCGCCATCTAC	0.655
GATGATTGTTCTCCCAGCTGATGAATTCTTGTGCTCGAGTAAACAAATTTTCCTAATCTTTCTGTTCAAGCGCCATCTAC	0.373
GATGATTGTTCTCCCAGCTGATGAATTGCAATCATCGAGTAAACAAATTTTCCTAATCTTTCTGTTCAAGCGCCATCTAC	2.79
GATGATTGTTCTCCCAGCTGATGAATTTAAAGACTCGAGTAAACAAATTTTCCTAATCTTTCTGTTCAAGCGCCATCTAC	0.245
GATGATTGTTCTCCCAGCTGATGAATTCTGTGTATCGAGTAAACAAATTTTCCTAATCTTTCTGTTCAAGCGCCATCTAC	5.85
GATGATTGTTCTCCCAGCTGATGAATTACGTCCGTCGAGTAAACAAATTTTCCTAATCTTTCTGTTCAAGCGCCATCTAC	0.451
GATGATTGTTCTCCCAGCTGATGAATTCACCAGGTCGAGTAAACAAATTTTCCTAATCTTTCTGTTCAAGCGCCATCTAC	0.21
GATGATTGTTCTCCCAGCTGATGAATTTCTGCAATCGAGTAAACAAATTTTCCTAATCTTTCTGTTCAAGCGCCATCTAC	3.01
GATGATTGTTCTCCCAGCTGATGAATTTCCCTGCTCGAGTAAACAAATTTTCCTAATCTTTCTGTTCAAGCGCCATCTAC	0.232
GATGATTGTTCTCCCAGCTGATGAATTCGCGAGGTCGAGTAAACAAATTTTCCTAATCTTTCTGTTCAAGCGCCATCTAC	0.304
GATGATTGTTCTCCCAGCTGATGAATTTCGTTTATCGAGTAAACAAATTTTCCTAATCTTTCTGTTCAAGCGCCATCTAC	3.7
GATGATTGTTCTCCCAGCTGATGAATTGCGACCGTCGAGTAAACAAATTTTCCTAATCTTTCTGTTCAAGCGCCATCTAC	0.963
GATGATTGTTCTCCCAGCTGATGAATTGGGCTGATCGAGTAAACAAATTTTCCTAATCTTTCTGTTCAAGCGCCATCTAC	0.443
GATGATTGTTCTCCCAGCTGATGAATTTACCAGATCGAGTAAACAAATTTTCCTAATCTTTCTGTTCAAGCGCCATCTAC	0.298
GATGATTGTTCTCCCAGCTGATGAATTGATTATTTCGAGTAAACAAATTTTCCTAATCTTTCTGTTCAAGCGCCATCTAC	2.06
GATGATTGTTCTCCCAGCTGATGAATTGATACAGTCGAGTAAACAAATTTTCCTAATCTTTCTGTTCAAGCGCCATCTAC	1.15
GATGATTGTTCTCCCAGCTGATGAATTCTCATAATCGAGTAAACAAATTTTCCTAATCTTTCTGTTCAAGCGCCATCTAC	0.342

Sequence	binding signal (RPM ratio (pull-down/input))
GATGATTGTTCTCCCAGCTGATGAATTGCGCTTTTCGAGTAAACAAATTTTCCTAATCTTTCTGTTCAAGCGCCATCTAC	4.02
GATGATTGTTCTCCCAGCTGATGAATTACTTCTATCGAGTAAACAAATTTTCCTAATCTTTCTGTTCAAGCGCCATCTAC	0.347
GATGATTGTTCTCCCAGCTGATGAATTGATATCATCGAGTAAACAAATTTTCCTAATCTTTCTGTTCAAGCGCCATCTAC	0.93
GATGATTGTTCTCCCAGCTGATGAATTTGAGCGTTCGAGTAAACAAATTTTCCTAATCTTTCTGTTCAAGCGCCATCTAC	1.18
GATGATTGTTCTCCCAGCTGATGAATTGTCGGGGTCGAGTAAACAAATTTTCCTAATCTTTCTGTTCAAGCGCCATCTAC	0.281
GATGATTGTTCTCCCAGCTGATGAATTGGCCACCTCGAGTAAACAAATTTTCCTAATCTTTCTGTTCAAGCGCCATCTAC	0.724
GATGATTGTTCTCCCAGCTGATGAATTTTTTGTATCGAGTAAACAAATTTTCCTAATCTTTCTGTTCAAGCGCCATCTAC	0.521
GATGATTGTTCTCCCAGCTGATGAATTAGAAGATTCGAGTAAACAAATTTTCCTAATCTTTCTGTTCAAGCGCCATCTAC	0.229
GATGATTGTTCTCCCAGCTGATGAATTATGTACCTCGAGTAAACAAATTTTCCTAATCTTTCTGTTCAAGCGCCATCTAC	1.89
GATGATTGTTCTCCCAGCTGATGAATTGACCATGTCGAGTAAACAAATTTTCCTAATCTTTCTGTTCAAGCGCCATCTAC	0.331
GATGATTGTTCTCCCAGCTGATGAATTTGCCGCGTCGAGTAAACAAATTTTCCTAATCTTTCTGTTCAAGCGCCATCTAC	0.677
GATGATTGTTCTCCCAGCTGATGAATTCTCTAGGTCGAGTAAACAAATTTTCCTAATCTTTCTGTTCAAGCGCCATCTAC	0.189
GATGATTGTTCTCCCAGCTGATGAATTCGATCCGTCGAGTAAACAAATTTTCCTAATCTTTCTGTTCAAGCGCCATCTAC	0.262
GATGATTGTTCTCCCAGCTGATGAATTCACCAACTCGAGTAAACAAATTTTCCTAATCTTTCTGTTCAAGCGCCATCTAC	0.308
GATGATTGTTCTCCCAGCTGATGAATTATGGGTCTCGAGTAAACAAATTTTCCTAATCTTTCTGTTCAAGCGCCATCTAC	0.816
GATGATTGTTCTCCCAGCTGATGAATTCGTCAGTTCGAGTAAACAAATTTTCCTAATCTTTCTGTTCAAGCGCCATCTAC	0.692
GATGATTGTTCTCCCAGCTGATGAATTTACGCAATCGAGTAAACAAATTTTCCTAATCTTTCTGTTCAAGCGCCATCTAC	3.31
GATGATTGTTCTCCCAGCTGATGAATTGATACCCTCGAGTAAACAAATTTTCCTAATCTTTCTGTTCAAGCGCCATCTAC	0.563
GATGATTGTTCTCCCAGCTGATGAATTTACCCGTTCGAGTAAACAAATTTTCCTAATCTTTCTGTTCAAGCGCCATCTAC	0.381
GATGATTGTTCTCCCAGCTGATGAATTGTTCGAATCGAGTAAACAAATTTTCCTAATCTTTCTGTTCAAGCGCCATCTAC	0.36
GATGATTGTTCTCCCAGCTGATGAATTTACGAGATCGAGTAAACAAATTTTCCTAATCTTTCTGTTCAAGCGCCATCTAC	0.339

Sequence	binding signal (RPM ratio (pull-down/input))
GATGATTGTTCTCCCAGCTGATGAATTCTATTCTTCGAGTAAACAAATTTTCCTAATCTTTCTGTTCAAGCGCCATCTAC	0.487
GATGATTGTTCTCCCAGCTGATGAATTGAGCAGATCGAGTAAACAAATTTTCCTAATCTTTCTGTTCAAGCGCCATCTAC	0.334
GATGATTGTTCTCCCAGCTGATGAATTGAAAGTCTCGAGTAAACAAATTTTCCTAATCTTTCTGTTCAAGCGCCATCTAC	0.284
GATGATTGTTCTCCCAGCTGATGAATTCTGATAGTCGAGTAAACAAATTTTCCTAATCTTTCTGTTCAAGCGCCATCTAC	1.06
GATGATTGTTCTCCCAGCTGATGAATTTGGACATTCGAGTAAACAAATTTTCCTAATCTTTCTGTTCAAGCGCCATCTAC	0.997
GATGATTGTTCTCCCAGCTGATGAATTGTTTCCGTCGAGTAAACAAATTTTCCTAATCTTTCTGTTCAAGCGCCATCTAC	0.864
GATGATTGTTCTCCCAGCTGATGAATTTAACTGTTCGAGTAAACAAATTTTCCTAATCTTTCTGTTCAAGCGCCATCTAC	0.595
GATGATTGTTCTCCCAGCTGATGAATTCGCGAATTCGAGTAAACAAATTTTCCTAATCTTTCTGTTCAAGCGCCATCTAC	0.868
GATGATTGTTCTCCCAGCTGATGAATTGCGTACTTCGAGTAAACAAATTTTCCTAATCTTTCTGTTCAAGCGCCATCTAC	1.22
GATGATTGTTCTCCCAGCTGATGAATTACACATCTCGAGTAAACAAATTTTCCTAATCTTTCTGTTCAAGCGCCATCTAC	0.946
GATGATTGTTCTCCCAGCTGATGAATTCCTAAACTCGAGTAAACAAATTTTCCTAATCTTTCTGTTCAAGCGCCATCTAC	0.342
GATGATTGTTCTCCCAGCTGATGAATTATCTCCATCGAGTAAACAAATTTTCCTAATCTTTCTGTTCAAGCGCCATCTAC	0.253
GATGATTGTTCTCCCAGCTGATGAATTGAACACATCGAGTAAACAAATTTTCCTAATCTTTCTGTTCAAGCGCCATCTAC	0.649
GATGATTGTTCTCCCAGCTGATGAATTAGCGGCGTCGAGTAAACAAATTTTCCTAATCTTTCTGTTCAAGCGCCATCTAC	0.611
GATGATTGTTCTCCCAGCTGATGAATTTGGTCCTTCGAGTAAACAAATTTTCCTAATCTTTCTGTTCAAGCGCCATCTAC	0.418
GATGATTGTTCTCCCAGCTGATGAATTAAGTGTGTCGAGTAAACAAATTTTCCTAATCTTTCTGTTCAAGCGCCATCTAC	2
GATGATTGTTCTCCCAGCTGATGAATTGGTTAGGTCGAGTAAACAAATTTTCCTAATCTTTCTGTTCAAGCGCCATCTAC	0.755
GATGATTGTTCTCCCAGCTGATGAATTATGTGAGTCGAGTAAACAAATTTTCCTAATCTTTCTGTTCAAGCGCCATCTAC	2.61
GATGATTGTTCTCCCAGCTGATGAATTGCGGCGCTCGAGTAAACAAATTTTCCTAATCTTTCTGTTCAAGCGCCATCTAC	0.839
GATGATTGTTCTCCCAGCTGATGAATTCATCCTCTCGAGTAAACAAATTTTCCTAATCTTTCTGTTCAAGCGCCATCTAC	0.392
GATGATTGTTCTCCCAGCTGATGAATTATGTCGCTCGAGTAAACAAATTTTCCTAATCTTTCTGTTCAAGCGCCATCTAC	1.12
